This is an account of results in the supplement of paper PMC4166925.

± gives the standard deviation of the averaged measurements. Whole data set: some 33,000 sequences, median “E-score (dimensionless, -0.5 to 0.5)” near -0.049, cut for the highest 2% near 0.37. This is one part of the list.

The test deals with T1, PmTbr T-box DNA-binding domain (GST fusion).
T1 sequence: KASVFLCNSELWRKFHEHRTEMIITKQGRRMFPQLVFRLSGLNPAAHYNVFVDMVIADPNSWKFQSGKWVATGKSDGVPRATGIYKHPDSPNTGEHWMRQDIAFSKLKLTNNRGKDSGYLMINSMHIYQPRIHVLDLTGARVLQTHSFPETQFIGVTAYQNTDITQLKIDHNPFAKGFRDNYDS
Kind of test: PBM E-score of 8-mer (E-score (dimensionless, -0.5 to 0.5)); Tbr is Tbrain of the sea star Patiria miniata (Pm) or the sea urchin Strongylocentrotus purpuratus (Sp); higher = stronger binding preference; most listed sequences are background and not binding sites. To be noted: the construct has about 5 more residues each side. A digest of the protocol: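 GST-fused Tbr T-box DNA-binding domains (the whole T-box plus about five flanking residues) were expressed in BL21 E. coli at 20 °C and purified by glutathione affinity chromatography. Universal Agilent oligonucleotide arrays were made double-stranded by primer extension, incubated with 200 nM protein in PBS (pH 7.5), then scanned and quantified. Every ungapped 8-mer was scored from probe intensities. The Universal PBM Analysis Suite gave each word an enrichment E-score, averaged over duplicate arrays.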
As for AGGGCCAT, the “PBM E-score of 8-mer” value is -0.257 ± 0.013. GTTCGTCA: the “PBM E-score of 8-mer” value was 0.0921 ± 0.043. Next, AGCCCTGC: -0.112 ± 0.0035. As to AACGGCTT, the “PBM E-score of 8-mer” value was -0.0435 ± 0.0081. The value for CTCATGTC was -0.105 ± 0.03; that for GCAGGTGA was 0.4392 ± 0.002; that for AGCCATGG was -0.198 ± 0.017.

With ATCGGTTC, the “PBM E-score of 8-mer” value was -0.017 ± 0.073.

For the sequence AGCCTTCC, the “PBM E-score of 8-mer” value was -0.196 ± 0.054. The value for TACGGCTA was -0.146 ± 0.013. The value for CAGATGAG was -0.15 ± 0.025.

In the case of GGGGCCAA, the “PBM E-score of 8-mer” value was -0.131 ± 0.0054.

As for AGAGCTGG, the “PBM E-score of 8-mer” value was -0.235 ± 0.02.

As for GGAGCCCA, the “PBM E-score of 8-mer” value is -0.23 ± 0.14. Next, GACTGTAA: -0.0154 ± 0.025. The value for GCCTTTGA was -0.196 ± 0.038; that for ACTTAGGA was -0.145 ± 0.067. As for GTAGTTAA, the “PBM E-score of 8-mer” value is -0.0551 ± 0.011. The value for AGCTCCGA was -0.00647 ± 0.052; that for CGGGCCCG was 0.108 ± 0.013. Next, CCGCTAAG: 0.0974 ± 0.043; AGTAGATG: -0.151 ± 0.026. The value for CAGGCCAC was -0.228 ± 0.0074; that for CAGACGCG was 0.143 ± 0.04; that for GGGAGTAA was -0.123 ± 0.013. In the case of CTATTCAA, the “PBM E-score of 8-mer” value was -0.116 ± 0.04. Next, AGGGGTAC: -0.373 ± 0.021. Regarding GTGACACA, the “PBM E-score of 8-mer” value is 0.416 ± 0.0096. Regarding ACCGGGAA, the “PBM E-score of 8-mer” value is -0.0696 ± 0.086. Next, AGCACGCG: 0.203 ± 0.0078; AGCTTGGC: -0.216 ± 0.08; ACTCATTG: -0.195 ± 0.062. Next, GTAGCCCA: -0.311 ± 0.012; GCAGGGGA: -0.161 ± 0.04; AGCCTGGC: 0.00368 ± 0.04. As for CGGAACGC, the “PBM E-score of 8-mer” value is 0.0456 ± 0.012. Take CGGACCTC: the “PBM E-score of 8-mer” value is -0.176 ± 0.027.

Turning to GCTATAGA, the “PBM E-score of 8-mer” value was -0.0638 ± 0.0077. As for CCGGAGTC, the “PBM E-score of 8-mer” value is -0.172 ± 0.011. For CGAGACTA, the “PBM E-score of 8-mer” value is -0.122 ± 0.059. Turning to CGCTTGGC, the “PBM E-score of 8-mer” value is -0.0524 ± 0.1. For the sequence AGTTTAAC, the “PBM E-score of 8-mer” value was 0.0571 ± 0.0041.

Regarding GATGCGGC, the “PBM E-score of 8-mer” value is -0.0897 ± 0.081. Regarding AGTAGACC, the “PBM E-score of 8-mer” value was -0.297 ± 0.031.

For CTGCCTGC, the “PBM E-score of 8-mer” value is -0.128 ± 0.065. The value for CACCCCTA was 0.246 ± 0.033. Next, CACCGCCG: 0.145 ± 0.074; CAATATGA: -0.0875 ± 0.0034. The value for ATACCCTA was 0.0205 ± 0.0012. On to AATCTCTA, for which the “PBM E-score of 8-mer” value was -0.0865 ± 0.062. Next, CGTTGCAA: -0.0113 ± 0.0031; GCTAAGAC: 0.0195 ± 0.0095.

Regarding CTGTATCC, the “PBM E-score of 8-mer” value was -0.268 ± 0.015. In the case of CAAGCTCG, the “PBM E-score of 8-mer” value amounted to 0.195 ± 0.053. The value for ATAAACGC was -0.125 ± 0.03; that for CCGTTGGC was 0.151 ± 0.01; that for GTGTTTTA was 0.211 ± 0.083.

For CCTCCGGA, the “PBM E-score of 8-mer” value was -0.197 ± 0.05. Next, AACGAGGT: 0.0204 ± 0.022; CCGAGCAG: -0.221 ± 0.017; AACACCAG: 0.335 ± 0.022. For the sequence ATTAACCA, the “PBM E-score of 8-mer” value is -0.0953 ± 0.0089.

AACTGGTA: the “PBM E-score of 8-mer” value was -0.129 ± 0.099. The value for TTTCAAAA was -0.327 ± 0.0076; that for TAGGGGGA was -0.277 ± 0.092; that for AGTACACT was -0.131 ± 0.043. In the case of GTTCCGAA, the “PBM E-score of 8-mer” value was -0.095 ± 0.058. Next, TCAGCAGA: 0.0225 ± 0.013; CTATATTC: -0.133 ± 0.067. Take ACGAGGCT: the “PBM E-score of 8-mer” value is -0.139 ± 0.012. Next, CTAATGGA: -0.217 ± 0.086; CCCCGATC: -0.143 ± 0.034; GGGCATGA: -0.0934 ± 0.074. With GTCCCTCA, the “PBM E-score of 8-mer” value is -0.119 ± 0.031.

With CGGTCTCA, the “PBM E-score of 8-mer” value was -0.00821 ± 0.039.

For the sequence GTCAAGCA, the “PBM E-score of 8-mer” value worked out at 0.0866 ± 0.074.

Take AGTTAAAT: the “PBM E-score of 8-mer” value was 0.0456 ± 0.055. The value for ATTCAACC was -0.322 ± 0.052. For the sequence TAAGTGGA, the “PBM E-score of 8-mer” value was -0.141 ± 0.0053. As for AGTCGCTG, the “PBM E-score of 8-mer” value was -0.0736 ± 0.038. For the sequence ATCTCCAA, the “PBM E-score of 8-mer” value was -0.0417 ± 0.024. As for CCGGAAGC, the “PBM E-score of 8-mer” value was -0.135 ± 0.031.

With ACAGTAAG, the “PBM E-score of 8-mer” value is -0.0467 ± 0.055. The value for TAACTGCA was -0.191 ± 0.061; that for CTACAATA was -0.163 ± 0.18. The value for CGCTCGTA was -0.182 ± 0.024.
